According to the supplement of paper PMC3334620:
Over roughly 33,000 sequences, “E-score (-0.5 to 0.5)” has its median near -0.016; the highest 2% begin near 0.32. The list shows a part of the results.

Biological target: T1, Stp1 (UniProt B3LFK1)
T1 sequence: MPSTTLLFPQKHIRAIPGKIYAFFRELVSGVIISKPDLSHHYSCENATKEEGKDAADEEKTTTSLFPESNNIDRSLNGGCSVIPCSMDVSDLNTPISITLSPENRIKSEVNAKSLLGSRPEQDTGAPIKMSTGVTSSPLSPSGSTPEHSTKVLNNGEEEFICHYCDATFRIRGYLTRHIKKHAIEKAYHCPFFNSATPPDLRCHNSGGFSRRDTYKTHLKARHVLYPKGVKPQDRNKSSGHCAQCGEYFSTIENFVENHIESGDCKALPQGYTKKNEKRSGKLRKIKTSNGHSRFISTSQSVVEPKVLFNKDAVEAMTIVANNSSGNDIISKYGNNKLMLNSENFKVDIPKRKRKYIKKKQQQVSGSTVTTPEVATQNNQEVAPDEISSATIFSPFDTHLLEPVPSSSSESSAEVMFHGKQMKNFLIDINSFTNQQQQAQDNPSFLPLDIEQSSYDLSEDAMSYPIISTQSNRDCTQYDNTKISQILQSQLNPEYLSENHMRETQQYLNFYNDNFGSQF
Test: PBM E-score (8-mer binding enrichment) (E-score (-0.5 to 0.5)); higher = stronger / more preferred TF binding; most listed sequences are background and not binding sites
Conditions: protein concentration: 200 nM; construct: GST-full length
Method: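 Universal 'all 10-mer' protein binding microarrays (Agilent AMADID 015681) probed with GST-tagged S. cerevisiae TFs (full-length or DBD) made by in vitro transcription/translation (PURExpress), about 100-200 nM. Bound TF was detected with fluorescent anti-GST. Each ungapped 8-mer (which stands for itself and its reverse complement) is scored by the PBM enrichment score (E-score), a modified Wilcoxon-Mann-Whitney statistic from -0.5 to +0.5, computed with the Universal PBM Analysis Suite. Scale: above 0.35 generally sequence-specific binding.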

Sequence | PBM E-score
CTCAGCGC | 0.0957
ACTCAAAC | 0.0639
AACGGCAT | 0.451
ACAACAGT | -0.155
CAGATGAC | -0.0813
CTACTAGC | 0.063
ACGACCCC | -0.132
GGCCCCCA | -0.406
AATGAATA | 0.111
GTACCGCA | 0.18
CGGACGAG | -0.159
GCCTGTCC | -0.271
CCAACACG | 0.0774
TGTCACAA | 0.158
CTTACCAA | 0.171
CTATACCC | -0.0678
ACTAACCT | -0.0441
ACGGAAAG | 0.0844
GACGCTAC | -0.0952
GATGCTGA | -0.277
CAGCTGAA | -0.0542
CCGAGTAG | 0.0203

Sequence | PBM E-score
ATCCCGGG | -0.0412
GGCCGCGA | -0.0392
AGGAATTG | 0.019
ATGAAGCC | 0.198
ACTGAGTC | -0.097
GTGATATA | -0.0801
CACCTAGC | -0.224
ATCTCCGA | -0.0118
TCTTCACA | 0.107
CGCACAAC | -0.0295
ACCTTCGG | -0.124
ATCAGCCC | -0.181
CCATATTC | -0.0131
CAATGTCC | -0.216
GGGCCACC | -0.17
CTTCAGAA | 0.0658
CCCCACCC | -0.0823
CCCTACGC | -0.0574
GCCTGAAC | -0.198
AGGAAGGC | 0.0626
GCTATAAC | -0.0348
GTGTTTCA | 0.012

Sequence | PBM E-score
CTCGGCGA | 0.123
AAAGGAAA | 0.196
ATGTAACA | 0.208
GGGCCCAA | -0.146
CACGTGTC | -0.116
CGGGGGGC | -0.23
GGGATTGA | -0.0707
GCAGCAAA | -0.171
GATCCTCC | -0.268
ACTCTAAT | 0.024
ACTCCAAC | -0.0586
AGTTTTGA | 0.0682
AAATCTAA | 0.056
CAGTATGC | 0.0773
TATCTCGA | 0.0361
AGTGTAAA | 0.00911
CGCTTGGA | -0.0508
GCCTCACC | 0.327
GGCTCGAC | 0.0122
AGAGGCCT | -0.0752
ATCGATGG | -0.144
AAGGTTGC | -0.182

Sequence | PBM E-score
CGGTATAC | -0.246
GGTATGCA | -0.294
GTGCCAGA | -0.141
CGGGACAG | 0.00286
AGCGCCAA | -0.059
GTTGCTCA | 0.0145
GAGTTTCC | -0.113
ACAGAGTC | -0.0844
GTTACCAA | 0.1
AAAGAGCA | 0.02
ACTCACCT | -0.268
ACTCTAGG | -0.175
GAACTATA | 0.138
GTACGAAA | 0.167
ACGCGCGA | 0.105
AGTTATAT | 0.0872
AACTCATA | 0.0506
CCGAGAGA | -0.157
CGGACAGC | 0.132
CAAGGGGA | -0.141
